Measurements reported in PubChem BioAssay AID889 (National Center for Advancing Translational Sciences (NCATS), 2007).
In all, about 75,000 compounds went through this assay and about 15 (0.02%) were called active. Inconclusive results, whose numbers are uncertain, are shown with a selection of clear calls. The call rests on the fitted dose curve; in most records, active means well fitted inhibition curve with a large enough effect in the main read-out, with a control signal flat (not every such curve was filed as active); inconclusive means small, poorly fitted or top-dose-only effect, or a change in a side signal; inactive means flat fitted curve, though single readings scatter. Potencies beside an inconclusive call are fits to weak or partial responses and may not hold up. “Side channel” marks fits to a control or component signal instead of the main read-out.

These compounds were tested against Caspase-7 (Homo sapiens) (UniProt P55210) (assay: qHTS Assay for Allosteric/Competitive Inhibitors of Caspase-7). Conditions: recombinant caspase-7, Ac-DEVD-AFC fluorescence rate; activity change, negative = inhibition: at 57.5 µM (top of the series) unless noted.
Potency means the concentration at half of the fitted maximal effect; tags describe the fitted curve by direction and shape or compound fluorescence and quenching.
Wherever activity change, negative = inhibition is given: % of control where 0% means no effect.

Chain of UniProt P55210 (P55210 whole entry, looked up): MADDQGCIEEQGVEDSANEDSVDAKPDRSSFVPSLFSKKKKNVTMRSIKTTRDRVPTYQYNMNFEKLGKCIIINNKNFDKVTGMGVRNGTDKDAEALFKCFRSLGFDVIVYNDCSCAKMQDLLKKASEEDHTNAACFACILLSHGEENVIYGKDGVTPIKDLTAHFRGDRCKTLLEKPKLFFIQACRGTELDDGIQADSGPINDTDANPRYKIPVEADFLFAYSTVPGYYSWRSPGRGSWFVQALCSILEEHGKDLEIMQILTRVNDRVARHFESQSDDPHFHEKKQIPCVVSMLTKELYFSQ

Potency, inconclusive:
CCNc1ncc2nc(-c3ccc(F)cc3)c(=O)n(-c3ccc(OC)cc3)c2n1 10 µM [fluorescent, side channel, partial curve]
CC1(C)Cc2c(C#N)c(N)sc(=S)c2CO1 31.6 µM [inhibitor, single point]
COc1cccc(C2=CC(c3ccc(N(C)C)cc3)n3ncnc3N2)c1 (stereo unspecified) 10 µM [fluorescent, side channel, partial curve]
CCCCOCCCn1c(-c2ccco2)nc2nc3ccccc3nc21 15.8 µM [fluorescent, partial curve]
CCNc1ncc2ncc(=O)n(CCOC)c2n1 25.1 µM [fluorescent, partial curve]
Cc1cccn2c(=O)c(C=NCc3ccccc3)c(NCCO)nc12 25.1 µM [inhibitor, single point]
CCNc1ncc2nc(-c3cccs3)c(=O)n(Cc3ccc(F)cc3)c2n1 3.16 µM [fluorescent, side channel, full curve]
CCN1C(=O)c2cccc3c(S(=O)(=O)NCc4ccco4)ccc1c23 15.8 µM [fluorescent, side channel, partial curve]
O=c1c(-c2cccs2)nc2cnc(Oc3ccccc3)nc2n1-c1ccccc1 3.16 µM [fluorescent, full curve]
CCc1ccc(C(=O)CSC2=C(C#N)C(c3ccco3)C(C(C)=O)=C(C)N2)cc1 (stereo unspecified) 20 µM [inhibitor, partial curve]
COCCn1c(=O)c(CCc2ccccc2)nc2cnc(N(C)C)nc21 25.1 µM [fluorescent, partial curve]
COCCn1nnnc1C(C(C)C)N(Cc1ccccc1)Cc1cc2cc(OC)ccc2[nH]c1=O (stereo unspecified) 39.8 µM [fluorescent, single point]
COc1cc(-c2oc3cc(O)ccc3c(=O)c2O)ccc1O 12.6 µM [fluorescent, side channel, partial curve]
O=c1oc2c(CN3CCCCC3)c(O)ccc2cc1-c1nc2ccccc2[nH]1 0.794 µM [fluorescent, side channel, full curve]
N#Cc1cc2c(=O)n3ccccc3nc2n(Cc2cccnc2)c1=O 3.16 µM [fluorescent, side channel, full curve]
CC1Cc2nc(SCC(=O)OCc3ccccc3)n(C)c(=O)c2S1 (stereo unspecified) 15.8 µM [fluorescent, side channel, partial curve]
O=C(O)c1cc(O)c2c(c1)C(=O)c1cccc(O)c1C2=O 25.1 µM [inhibitor, partial curve]
Cc1cccc(-n2c(N)c(C(=O)NCCN3CCOCC3)c3nc4ccccc4nc32)c1 12.6 µM [fluorescent, side channel, partial curve]
O=C(Nc1cnn(Cc2ccccc2)c1)c1cc2nc(-c3ccco3)cc(C(F)(F)F)n2n1 31.6 µM [inhibitor, single point]
N#Cc1cc2c(=O)n3ccccc3nc2n(CCN2CCOCC2)c1=O 6.31 µM [fluorescent, side channel, partial curve]
CC1CCN(c2nc3ccccc3nc2C(C#N)S(=O)(=O)c2ccccc2)CC1 (stereo unspecified) 15.8 µM [inhibitor, partial curve]
O=C(c1cnn2c(C(F)(F)F)cc(-c3ccco3)nc12)N1CCc2ccccc2C1 25.1 µM [fluorescent, partial curve]
Cc1ccc2nc(N3CCC(C(=O)O)CC3)nc(-c3ccccc3)c2c1 15.8 µM [fluorescent, side channel, partial curve]
Cc1cc(NCCCCO)n2c(nc3ccccc32)c1C#N 12.6 µM [fluorescent, partial curve]
O=c1ccc2ccc(O)cc2o1 15.8 µM [fluorescent, side channel, partial curve]
COc1cccc(Cn2c(=O)c(-c3cccs3)nc3cnc(N4CCNCC4)nc32)c1 3.98 µM [fluorescent, side channel, partial curve]
COCCn1c(=O)c(-c2cccc(C#N)c2)nc2cnc(N3CCOCC3)nc21 2.51 µM [fluorescent, full curve]
CC1=C(C#N)C(c2cccnc2)C2=C(CC(C)(C)CC2=O)N1 (stereo unspecified) 12.6 µM [fluorescent, partial curve]
N#CCCn1c(=O)c(-c2ccc(Cl)cc2)nc2cnc(Oc3cccc(Cl)c3)nc21 3.98 µM [inhibitor, full curve]
CCCCCn1c(N)c(C#N)c2nc3ccccc3nc21 6.31 µM [fluorescent, side channel, partial curve]
COc1ccc2cc(CN(CCCN3CCOCC3)Cc3nnnn3C3CCCCC3)c(=O)[nH]c2c1 31.6 µM [fluorescent, single point]
COc1cccc(Cn2c(=O)c(-c3ccc(Cl)cc3)nc3cnc(OC)nc32)c1 15.8 µM [inhibitor, partial curve]
CCNc1ncc2nc(-c3cccc(C#N)c3)c(=O)n(Cc3cccc(OC)c3)c2n1 1.58 µM [inhibitor, partial curve]
Cc1nc2ccc(NC(=O)N3CCSCC3)cc2nc1C 20 µM [inhibitor, partial curve]
CCNc1ncc2ncc(=O)n(C3CC3)c2n1 25.1 µM [fluorescent, side channel, partial curve]
COc1ccc(-c2nc3cnc(Nc4cccc(OC)c4)nc3n(C[C@H]3CCCO3)c2=O)cc1 1.26 µM [fluorescent, side channel, partial curve]
CCNc1ncc2nc(-c3cn(C)c4ccccc34)c(=O)n(Cc3cccc(OC)c3)c2n1 0.794 µM [inhibitor, full curve]
CC(=O)N(Cc1ccccc1)c1ncc2c(n1)c(=O)c(C#N)c1ccccn12 12.6 µM [fluorescent, partial curve]
C=CCn1c(NC(=O)c2ccccc2)c(C#N)c2nc3ccccc3nc21 12.6 µM [fluorescent, partial curve]
COC(=O)C1=CN(C)C=C(C(=O)OC)C1c1ccsc1 10 µM [fluorescent, side channel, partial curve]
COc1cccc(C2=CC(c3cccc(OC)c3OC)n3nnnc3N2)c1 (stereo unspecified) 31.6 µM [inhibitor, single point]
COc1ccc(Oc2ncc3nc(-c4cc(F)cc(F)c4)c(=O)n(C[C@H]4CCCO4)c3n2)cc1 31.6 µM [inhibitor, single point]
CCOCCCNC(=O)Cc1cc(=O)[nH]c(=O)[nH]1 20 µM [fluorescent, side channel, partial curve]
CCN1C2=C(C(=O)CCC2)C(c2ccc(O)c(Br)c2)C2=C1CCCC2=O 20 µM [fluorescent, side channel, partial curve]

Activity change, negative = inhibition, inactive:
NCCCCCCN 0.133%
O=C(COc1ccc(Cl)cc1Cl)NCc1ccncc1 0.148%
O=c1cnc2cnc(Oc3ccccc3)nc2n1CCc1ccccc1 -5.74%
COC(=O)C/C=C\[C@@H](C)[C@@H](CO)NS(=O)(=O)c1ccc(C)cc1 -0.224% [at 11.5 µM]
O=C1c2ccccc2C(=O)N1c1ccc(Cc2ccc(N3C(=O)c4ccccc4C3=O)cc2)cc1 -1.76% [at 11.5 µM]
O=C(/C=C\c1ccc(O)c(O)c1)OCCc1ccccc1 2.34%
CCOC(=O)C1=C[C@@]2(CC)CCCN3CCc4c(n1c1ccccc41)C32 (stereo partly specified) -0.618%
Nc1nc(Cl)cc(NCCO)n1 0.665% [at 11.5 µM]
CCCn1c(SCC(=O)Nc2nc3c(s2)CCCC3)nc2c1c(=O)n(C)c(=O)n2C 1.35%
CCOC(=O)CSC1=C(C#N)C(c2ccc(F)cc2)C(C(C)=O)=C(C)N1 (stereo unspecified) -2.92%
COC(=O)c1ccc(C(NC(=O)OCc2ccccc2)/C(=C/[C@@H](C)C(=O)NCc2cc(F)cc(F)c2)c2cccnc2)cc1 (stereo partly specified) -5.22%
Cn1c(=O)[nH]c(=O)c2c1nc(N1CCCCCC1)n2CCCSc1nc2ccccc2o1 -4.64%
CCOc1ccc2[nH]c(C)c(CN(C)C)c(=O)c2c1 0.0232%
Cc1noc(C)c1-c1nc(N(C)C)c2ccccc2n1 -4.77%
O=C(O)C(Cl)(c1ccccc1)c1ccccc1 -6.23% [at 11.5 µM]
COc1ccc2[nH]c(=O)c(C(c3nnnn3CC3CCCO3)N3CCc4ccccc4C3)cc2c1 (stereo unspecified) -5.62%
CCc1nnc(NC(=O)CSc2nnc(C3CCCCC3)n2-c2ccccc2)s1 0.712%
O=C(Nc1cccc2ccccc12)OC1C=CS(=O)(=O)C1 (stereo unspecified) -2.39%
COc1ccc(-c2noc(CSc3nc4ccccc4c(=O)n3-c3ccccc3)n2)cc1OC -0.888%
COc1ccccc1-n1cc(C(=O)NCC(=O)N2CCN(c3ccccc3)CC2)c2ccccc2c1=O -0.349%
CCCCCCCCCc1ccc(OCCOCCOCCOCCOCCOCCOCCOCCOCCO)cc1 -6.3%
S=C(c1ccc(N2CCCC2)cc1)N1CCCCC1 -8.45%
